One may read the IC50 as the point on the concentration scale where inhibition reaches its midpoint. Low values mean greater potency in that assay, high ones weaker potency in that assay.

The subject of the experiment is SKOV3 R248W p53. As to the kind of experiment: cells. The settings on record: Homo sapiens, SK-OV-3.

The compound `O=C1C2CCN(CC2)C1(CO)CO` [PRIMA-1, 2,2-Bishydroxymethyl-1-azabicyclo[2.2.2]octan-3-one] had a 50% inhibitory concentration (IC50) of 20 µM.

These data come from patent publication US20230346743A1, “COMBINATION CANCER THERAPIES” (The Board of Regents of the University of Oklahoma, priority 2018, published 2023).
